About 340 (0.77%) of roughly 44,000 compounds were called active. Roughly 5% stayed inconclusive and do not appear here. Calls come from the whole dose curve; as a rule, active = well fitted inhibition curve with a large enough effect; inconclusive = small, poorly fitted or top-dose-only effect; inactive = flat fitted curve, though single readings scatter. The list shows a part of the results.
assay: Acumen qHTS Assay for Inhibitors of the mTORC1 Signaling Pathway in MEF (Tsc2-/-, p53-/-) Cells: Sytravon; details: phospho-rpS6 immunofluorescence/PI, 24 h; series mostly up to 38.3 µM; activity change, negative = inhibition: at the top concentration;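 note: plate controls were DMSO for no effect and rapamycin for full effect; nearly all actives have a fitted effect of over 50% in size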
How it was run: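 Tsc2-/-, p53-/- MEFs (empty-vector stable line) in DMEM + 10% FBS were treated with compounds 24 h at 37 degree Celsius, fixed, and immunostained for phospho-rpS6 (Alexa-488) with propidium iodide counterstain. Laser-scanning cytometry gave % positive cells, normalized against 7.5 nM rapamycin and DMSO.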

Activity change, negative = inhibition, inactive:
O=C1c2oc3ccccc3c(=O)c2C(c2ccccc2)N1Cc1ccc2c(c1)OCO2 (configuration not stated) -11.7%
CN1C(=O)c2ccccc2Sc2ccc(NC(=O)c3ccccc3F)cc21 -3.09%
Cc1c(-c2nsc(NC(=O)c3ccccc3)n2)nnn1-c1ccc(C(F)(F)F)c(Cl)c1 -20.8%
CCOC(=O)c1cccc(NC(=O)[C@@H](c2ccccc2)N2Cc3ccccc3C2=O)c1 -11.7%
Cc1cc(C)c(NC(=O)Cc2csc(C)n2)c(Cl)c1 -3.1%
CCN1C(=O)c2ccccc2Sc2ccc(C(=O)NCCCN(CC(C)C)CC(C)C)cc21 -3.55%
COC(=O)c1c(-c2cccs2)csc1NC(=O)COc1ccc(C(C)(C)C)cc1 -0.265%
COc1ccccc1CNc1ccc(-c2nc(-c3cccnc3)no2)cc1[N+](=O)[O-] -0.0754%
CCOc1ccccc1NC(=O)c1nn(-c2ccc(C)cc2)c(=O)n(C)c1=O -8.94%
CCOc1ccccc1C1C(C(=O)N2CCCCC2)=C(C)Nc2nc3ccccc3n21 (configuration not stated) -27.7%
COc1ccc(N(C)C(=O)CCn2cnc3onc(-c4ccc(F)cc4)c3c2=O)c(OC)c1 -7.33%
COc1cccc(NC(=O)CN2C(=O)c3cccnc3Oc3ccc(Cl)cc32)c1 -13.7%
CCc1ccc(NC(=O)c2sc(-n3nc(C)c(Cc4ccc(OC)cc4)c3C)nc2C)cc1 -18.5%
CCCCCS(=O)(=O)c1oc(-c2cccs2)nc1S(=O)(=O)c1ccc(C)cc1 3.65%
CC(C)(C)OC(=O)N1CCC(c2c(C(=O)N3CCC(c4ccccc4)C3)cnn2-c2cccc(Cl)c2)CC1 (configuration not stated) -1.99%
COc1ccc(C2CC(=O)N(CC(=O)Nc3cc(C)ccc3C)c3ccccc3S2)cc1 (configuration not stated) -10.4%
CCCCN(CCCC)C(=O)c1cc2c(=O)n3cccc(C)c3nc2s1 0.312%
Cc1cccc(OCC(=O)N(Cc2cccs2)c2ccc(Cl)cc2)c1C -8.76%
Cc1cc2n(n1)C(c1cc(C(C)(C)C)c(O)cc1O)Nc1ccccc1-2 (configuration not stated) -3.56%
CCOc1ccc(C(=O)N2CCC(c3nc4ccccc4o3)CC2)cc1 -5.36%
CSc1cccc(NC(=O)CN2C(=O)COc3ccc(Cl)cc32)c1 -1.9%
CCOc1ccc(OCC)c(NC(=O)c2nnn(CC(=O)Nc3ccc(C)cc3C)c2N)c1 2.5%
CCCCOc1ccc(C(=O)Nc2cccc(-c3nc4cccnc4s3)c2)cc1 3.32%
COc1ccc(NC(=O)COc2ccc(-c3nn(C)c(=O)c4ccccc34)cc2)cc1 -6.79%
COc1ccccc1CNC(=O)C(NS(=O)(=O)c1cccs1)C(C)C (configuration not stated) -8.93%
Cc1ccc(-c2nc3sc(CCNC(=O)c4ccc(Br)o4)c(C)n3n2)cc1 -1.54%
CCCCc1ccc(NC(=O)c2cc3c(=O)n4ccccc4nc3s2)cc1 2.69%
COc1ccccc1-c1nnc(SCC(=O)c2ccc(Cl)cc2)n1-c1ccccc1 -7.46%
CCOc1ccc(NC(=O)CSc2nc3c(oc4ccccc43)c(=O)n2-c2ccccc2C)cc1 -9.43%
CC(NC(=O)c1ccc2c(c1)CCN2S(=O)(=O)c1ccc(Cl)cc1)c1ccccc1 (configuration not stated) -5.36%
Cc1ccc(NC(=O)NCCc2c(C)nn(C)c2C)cc1Cl 4.78%
CCn1ccc2cc(S(=O)(=O)N3CCCN(C(=O)Nc4cccc(Cl)c4)CC3)ccc21 -13.2%
COc1ccc(C2=NN(CC(=O)NCCc3ccc(OC)c(OC)c3)C(=O)CC2)cc1 -10.9%
COc1ccc(N(C)C(=O)c2cn(C3CCCCC3)c(=O)c3c2c2ccccc2n3C)cc1 -29.1%
CCOC(=O)c1c(S(=O)(=O)N2CCCC(C(=O)Nc3cccc(Cl)c3)C2)c(C)n(C)c1C (configuration not stated) -4.49%
CCCCN(CC)CCCNC(=O)CCN1N=C(c2ccc(OC)cc2)CCC1=O 1.89%
COc1ccccc1NC(=O)C(=O)NCCc1csc(-c2cccc(F)c2)n1 -1.97%
COc1ccccc1NC(=O)C1=C(C)Nc2ncnn2C1c1ccccc1C(=O)O (configuration not stated) -1.66%
COc1cccc(CNC(=O)c2cc3c(s2)-c2ccccc2OC3)c1 -0.246%
COc1ccc(-n2c(=O)c3c4c(sc3n(Cc3ccc(F)cc3)c2=O)CCCC4)c(OC)c1 -6.08%
COc1ccc(NC(=O)c2cc(C3CC3)nc3c2c(C)nn3-c2ccccc2)cc1 0.726%
Cc1ccc(OCC(=O)Nc2nnc(SCc3cc(=O)c4ccccc4[nH]3)s2)cc1 5.03%
Cc1cc(N2CCCCC2)nc2ccc(NC(=O)c3cccc(Cl)c3)cc12 0.854%
CCc1ccc(-n2c(=O)c3cccnc3n2CC(=O)Nc2cc(F)ccc2F)cc1 2.72%
CCOC(=O)N1CCc2c(sc(NCc3cc(OC)c(OC)cc3OC)c2C(=O)Nc2ccc(OCC)cc2)C1 -5.06%
CCN(CC)C(=O)Cn1cc(SCC(=O)Nc2ccccc2C)c2ccccc21 -7.9%
CCN1CCN(c2ncc3c(n2)CCN(Cc2ccc(OC(C)C)cc2)C3)CC1 1.82%
CCOC(=O)c1cccc(NC(=O)NCc2ccc3c(c2)CCN3C(=O)c2ccccc2)c1 -16.9%
Cc1cccc(-c2nc(SCCCOc3ccc(Cl)c(C)c3)n3[nH]c(=O)cc3n2)c1 8.68%
CCOC(=O)c1ccc(-c2ccc(/C=C(\C#N)C(=O)Nc3ccc(OCC)cc3)o2)cc1 4.93%
COC(=O)c1nnn(-c2cccc(C)c2)c1C(=O)OC -7.85%
COc1ccc(C2(CNC(=O)C(=O)Nc3ccc(F)cc3)CCCC2)cc1OC 0.814%
COc1ccc(Cl)cc1-n1nnc(-c2nsc(NC(=O)c3ccccc3Cl)n2)c1C 4.61%
CCCSc1nc2sc3c(c2c(=O)n1Cc1ccccc1)CC(C)(CC)OC3 (configuration not stated) -3.1%
Cc1ccc(NC(=O)C2CCC(CNS(=O)(=O)c3csc(C(N)=O)c3)CC2)cc1Cl (configuration not stated) -8.05%
CCc1ccccc1NC(=O)C(=O)NCC(c1cccnc1)N1CCN(c2ccccc2F)CC1 (configuration not stated) 2.09%
CCc1nn(Cc2cc(C)ccc2C)c(=O)c2cc3cc(C)ccc3n12 -3.39%
CCOC(=O)c1c(S(=O)(=O)NCC(=O)Nc2cc(C)ccc2C)c(C)n(C)c1C -5.12%
Cc1ccc(NS(=O)(=O)c2ccc3c(c2)CCCN3C(=O)C2CCC2)c(C)c1 -14.8%
CCc1nn2c(=O)cc(COC(=O)c3ccco3)nc2s1 -25.3%
COc1ccc(N2CCN(C(=O)c3cc4c(s3)-c3ccccc3OC4)CC2)cc1 -10.7%
CCOC(=O)C1CCN(S(=O)(=O)c2csc(C(N)=O)c2)CC1 -3.82%

From PubChem BioAssay AID493208 (National Center for Advancing Translational Sciences (NCATS), 2011)
